In patent US20140128367A1, “CYCLOALKYL-FUSED TETRAHYDROQUINOLINES AS CRTH2 RECEPTOR MODULATORS” (Merck Sharp & Dohme Corp., priority 2011, published 2014):
Read-outs that look alike come from different tables or passages of the source.

Tests used:
hCRTH2 [1] = biological target: T1, hCRTH2 (Homo sapiens, UniProt Q9Y5Y4); conditions: Table A; [3H]PGD2 competition, HEK-hCRTH2 membranes
T1 sequence (Q9Y5Y4 1-395): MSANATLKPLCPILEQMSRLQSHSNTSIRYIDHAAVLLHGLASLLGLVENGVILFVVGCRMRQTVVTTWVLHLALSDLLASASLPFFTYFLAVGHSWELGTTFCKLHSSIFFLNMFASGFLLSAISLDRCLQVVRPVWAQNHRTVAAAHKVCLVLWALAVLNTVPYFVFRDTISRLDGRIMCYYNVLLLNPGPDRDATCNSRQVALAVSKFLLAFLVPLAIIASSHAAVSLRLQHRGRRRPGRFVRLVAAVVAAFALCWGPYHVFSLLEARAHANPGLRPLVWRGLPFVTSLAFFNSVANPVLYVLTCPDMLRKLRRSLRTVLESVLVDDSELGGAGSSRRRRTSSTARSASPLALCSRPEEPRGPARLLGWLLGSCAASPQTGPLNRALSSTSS

hCRTH2 [2] = biological target: T1, hCRTH2; assay: biochemical; conditions: Ki (nM), Table A; [3H]PGD2 competition, HEK-hCRTH2 membranes

Ki (hCRTH2 [1])	Ki (hCRTH2 [2])	Compound
1 to 5 nM	–	4-((cis,cis-3- (benzyloxycarbonyl)-5,6- difluoro-1,2,2a,3,8,8a- hexahydrocyclobuta[b]quin- olin-8- yl)(cyclopropyl)amino) butanoic acid [compound 117]
–	5.1 to 20 nM	O=C(O)CCC(=O)N(C1CC1)[C@@H]1c2ccc(Cl)cc2N(C(=O)c2ccc(OC(F)(F)F)cc2)[C@@H]2CCC[C@@H]21 (racemic) [17CG, 4-[[cis-6-chloro-2,3,3a,4,9,9a-hexahydro-4-[4-(trifluoromethoxy)benzoyl]-1H-cyclopenta[b]quinolin-9-yl]cyclopropylamino]-4-oxobutanoic acid]
–	20.1 to 200 nM	CC1(C)C[C@@H]2[C@H](C1)N(C(=O)c1ccc(OC(F)(F)F)cc1)c1ccccc1[C@@H]2N(C(=O)CCC(=O)O)C1CC1 (racemic) [compound 20, 4-[Cyclopropyl[cis,cis-2,3,3a,4,9,9a-hexahydro-2,2-dimethyl-4-[4-(trifluoromethoxy)benzoyl]-1H-cyclopenta[b]quinolin-9-yl]amino]-4-oxobutanoic acid]
–	1 to 5 nM	CCc1ccc(C(=O)N2c3cc(Cl)ccc3C(N(C(=O)CCC(=O)O)C3CCC3)C3CCCC32)cc1 (single isomer, unassigned) [17CQ, 4-[[cis, cis-6-chloro-4-(4-ethylbenzoyl)-2,3,3a,4,9,9a-hexahydro-1H-cyclopenta[b]quinolin-9-yl]cyclobutylamino]-4-oxobutanoic acid]
–	1 to 5 nM	O=C(O)COC(=O)N(C1CC1)[C@@H]1c2ccccc2N(C(=O)c2ccc(F)cc2)[C@@H]2CC[C@@H]21 (single isomer, unassigned) [32i, [[[cyclopropyl[cis,cis-3-(4-fluorobenzoyl)-1,2,2a,3,8,8a-hexahydrocyclobuta[b]quinolin-8-yl]amino]carbonyl]oxy]acetic acid]
–	5.1 to 20 nM	[2H][C@@]1(N(CCCC(=O)O)C2CC2)c2ccccc2N(C(=O)OCc2ccccc2)[C@@H]2CCC[C@@H]21 (single isomer, unassigned) [compound 43, 4-(Phenylmethyl) deuterated-cis,cis-9-[(3-carboxypropyl)cyclopropylamino]-1,2,3,3a,9,9a-hexahydro-4H-cyclopenta[b]quinoline-4-carboxylate-(9D)]
–	20.1 to 200 nM	N#Cc1ccc2c(c1)C(N(C(=O)CCC(=O)O)C1CC1)C1CCCC1N2C(=O)c1ccc(OC(F)(F)F)cc1 (single isomer, unassigned) [compound 50, 4-[[cis,cis-7-cyano-2,3,3a,4,9,9a-hexahydro-4-[4-(trifluoromethoxy)benzoyl]-1H-cyclopenta[b]quinolin-9-yl]cyclopropylamino]-4-oxobutanoic acid]
–	1 to 5 nM	O=C(O)CCC(=O)N(C1CC1)C1c2cc(Cl)c(Cl)cc2N(C(=O)c2ccc(OC(F)(F)F)cc2)C2CCC21 (single isomer, unassigned) [compound 121, 4-[cyclopropyl[cis,cis-5,6-dichloro-1,2,2a,3,8,8a-hexahydro-3-[4-(trifluoromethoxy)benzoyl]cyclobuta[b]quinolin-8-yl]amino]-4-oxobutanoic acid]
20.1 to 200 nM	–	CC12CCC1N(C(=O)c1ccc(OC(F)(F)F)cc1)c1ccccc1C2N(C(=O)CCC(=O)O)C1CC1 (single isomer, unassigned) [compound 158, 4-(cyclopropyl(cis,cis-8a-methyl-3-(4-(trifluoromethoxy)benzoyl)-1,2,2a,3,8,8a-hexahydrocyclobuta[b]quin-olin-8-yl)amino)-4-oxobutanoic acid]
201 to 7500 nM	–	CCN(C(=O)[C@H](C)CC(=O)O)C1c2ccccc2N(C(=O)OCc2ccccc2)C2CCCC12 (stereo in doubt) [compound 104, 4-(phenylmethyl)cis,cis-9-[(3-carboxy-2(R)-methyl-1-oxopropyl)ethylamino]-1,2,3,3a,9,9a-hexahydro-4H-cyclopenta[b]quinoline-4-carboxylate]

Compound	Ki (hCRTH2 [1])	Ki (hCRTH2 [2])
O=C(O)CCC(=O)N(C1CC1)C1c2ccc(Cl)cc2N(C(=O)c2ccc(OC(F)(F)F)cc2)C2CCCC21 (single isomer, unassigned) [17CT, 4-[[cis, cis-6-chloro-2,3,3a,4,9,9a-hexahydro-4-[4-(trifluoromethoxy)benzoyl]-1H-cyclopenta[b]quinolin-9-yl]cyclopropylamino]-4-oxobutanoic acid]	–	1 to 5 nM
